# Source: PubChem BioAssay AID1745853 (National Center for Advancing Translational Sciences (NCATS), 2022)
# “And” between values parts separate entries of the source, which are not always exact repeats. Identical values can stand only once. The list shows a part of the results. The main result of the screen is listed elsewhere. These columns were measured beside it and carry no call.
# Experiments:
# Test in all cases: Primary Screen for Target Class Profiling of Small Molecule Inhibitors of Methyltransferases
# [1] = target: Glycine N-methyltransferase (Homo sapiens) (UniProt Q14749); conditions: purified enzyme, MTase-Glo SAH luminescence; measured here: GNMT inhibition; at 40 µM; stronger effect = lower value
# Summary of the method: (§1)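 Each enzyme was assayed with SAM and its substrate. SAH formation detected by MTase-Glo luminescence; single-point 40 uM screen[…].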
# [2] = target: Guanidinoacetate N-methyltransferase (Homo sapiens) (UniProt Q14353); conditions: purified enzyme, MTase-Glo SAH luminescence; measured here: GAMT inhibition; at 40 µM; stronger effect = lower value
# Summary of the method: as §1
# [3] = target: Histamine N-methyltransferase (Homo sapiens) (UniProt P50135); conditions: purified enzyme, MTase-Glo SAH luminescence; measured here: HNMT inhibition; at 40 µM; stronger effect = lower value
# Summary of the method: as §1
# [4] = target: Nicotinamide N-methyltransferase (Homo sapiens) (UniProt P40261); conditions: purified enzyme, MTase-Glo SAH luminescence; measured here: NNMT inhibition; at 40 µM; stronger effect = lower value
# Summary of the method: as §1
# [5] = target: Phenylethanolamine N-methyltransferase (Homo sapiens) (UniProt P11086); conditions: purified enzyme, MTase-Glo SAH luminescence; measured here: PNMT inhibition; at 40 µM; stronger effect = lower value
# Summary of the method: as §1
# % is scaled to controls: 0 for no effect and ±100 for the full control effect.
SMILES,"activity change, negative = inhibition [1]","activity change, negative = inhibition [2]","activity change, negative = inhibition [3]","activity change, negative = inhibition [4]","activity change, negative = inhibition [5]"
CCn1nc(-c2cccc(-c3ccnn3C)c2)nc1N(C)C,-4.47%,-6.38%,-6.56%,-9.74%,-9.11%
Cc1nc(C)c(C(=O)N2CCCCCCNC(=O)CC2)s1,1.43%,1.99%,0.883%,4.71%,1.17%
Cc1ccc(NS(=O)(=O)c2cc3c(cc2C)n(C)c(=O)n3C)c(Cl)c1,4.34%,0%,3.7%,-2.92%,4.07%
CN1CC2(CCN(Cc3ccc(C#N)cc3)CC2)CC(c2ccccc2)C1=O (centres undefined),-16.8%,-8.53%,-4%,-6.84%,-9.42%
CN(Cc1ccc(N2CCNC2=O)cc1)CC1CCCN(CCc2ccc(F)cc2)C1 (centres undefined),-2.51%,-1.85%,-14.8%,-4.83%,-1.68%
O=C(CC1CCCC1)N1CCC(c2noc(-c3cnccn3)n2)C1 (centres undefined),0.289%,-1.78%,1.85%,-9.65%,-3.26%
CCOCCCNC(=O)C1(C)Cn2c(ccc2-c2ccco2)C(=O)N1c1ccc(OC)cc1 (centres undefined),-4.34%,4.69%,-0.947%,-1.22%,-1.55%
CC(C)S(=O)(=O)c1ncc(CN(C)Cc2cnn(C)c2)n1CCc1ccccc1,-1.44%,-0.531%,0.124%,0.994%,0.354%
CC(C)Cn1c(=O)c2ccccc2n2c(SCc3ccc(F)cc3)nnc12,0.497%,4.76%,9.11%,-7.67%,9.63%
Cn1c(=O)c2[nH]c(-c3ccc(S(=O)(=O)O)cc3)nc2n(C)c1=O,-53.8%,7.78%,0.456%,-6.66%,7.36%
COc1cccc([C@H]2Nc3ccc(S(=O)(=O)Nc4ccc(C)c(C)c4)cc3[C@H]3C=CC[C@H]32)c1OC,-14.5%,-1.12%,-13.6%,-17.3%,-18.2%
CCCN1C(=O)c2c(C(=O)Nc3cccc(C)c3C)ncn2CC1(C)C(=O)NC1CCCC1 (centres undefined),-0.82%,0%,5.3%,6.49%,9.08%
CNC(=O)c1cc(C2CC2)nc2c1c(C1CCN(C(=O)C3CCCC3)C1)nn2C (centres undefined),-2.55%,0.624%,2.21%,-6.52%,-0.72%
COc1ccccc1CNC(=O)C1(C)Cn2nc(-c3ccccc3)cc2C(=O)N1Cc1ccc(OC)c(OC)c1 (centres undefined),5.73%,0.648%,9.24%,-19.4%,3.5%
Cn1c(=O)n(C)c2cc(S(=O)(=O)N3CCCc4ccccc43)ccc21,4.63%,0%,7.29%,-6.62%,1.38%
COc1ccc(C(=O)Cn2nc3n(C(C)C)c(=O)c4ccc(C(=O)NC5CCCC5)cc4n3c2=O)cc1,-5.14%,-3.02%,3.26%,-9.19%,-6.46%
CC(C)NC(=O)C1CCc2nnc(C(C)(C)C)n21 (centres undefined),0.723%,-1.83%,1.46%,-0.075%,-2.76%
COc1cccc(C(=O)Cn2nc3n(Cc4ccc(F)cc4)c(=O)c4ccccc4n3c2=O)c1,4.76%,0.398%,8.75%,4.42%,2.09%
C=C1CC[C@@]2(OC1)O[C@H]1CC3[C@@H]4CC=C5C[C@H](O[C@H]6OC[C@@H](O)C(O)[C@@H]6O[C@@H]6O[C@@H](C)[C@H](O)[C@@H](O[C@@H]7O[C@H](CO)[C@@H](O)[C@H](O)[C@H]7O)[C@H]6O)C[C@@H](O)[C@]5(C)C4CC[C@]3(C)[C@H]1[C@@H]2C (some centres undefined),-6.83%,1.42%,-2.64%,-5.18%,-13.9%
CC1CCC(NC(=O)C2(C)Cn3c(cc4occc43)C(=O)N2Cc2ccc(F)cc2)CC1 (centres undefined),1.06%,0%,6.85%,1.96%,2.77%

SMILES,"activity change, negative = inhibition [1]","activity change, negative = inhibition [2]","activity change, negative = inhibition [3]","activity change, negative = inhibition [4]","activity change, negative = inhibition [5]"
C[C@@H]1CCC2C(C)(C)[C@H](O)[C@H](O)C[C@]2(C)[C@@]12Cc1c(O)cc3c(c1O2)CN(CCCC(=O)O)C3=O (some centres undefined),-1.37%,-2.66%,7.57%,-17.8%,-12.2%
CCOC(=O)c1cc2n(n1)CC(C)(C(=O)NCCCOC)N(c1ccccc1C)C2=O (centres undefined),4.36%,4.14%,6.41%,3.11%,2.32%
CC1=C2C3OC(=O)C(C)C3(O)CCC2(C)CCC1=O (centres undefined),0.806%,0.789%,6.3%,-12.8%,4.11%
O=C(O)CCc1cccc(O)c1O[C@@H]1O[C@H](CO)[C@@H](O)[C@H](O)[C@H]1O,0.61%,4.48%,5.95%,-10.8%,2.42%
COc1ccc(C(=O)Cn2nc3n(CCC(C)C)c(=O)c4ccc(C(=O)NC(C)C)cc4n3c2=O)cc1,6.75%,0%,-0.813%,6.41%,6.32%
CC(C)CCNC(=O)CCn1ccc2cc(S(=O)(=O)N3CCCCC3)ccc21,6.19%,5.54%,7.97%,5.86%,3.87%
CNCCN(C)Cc1cn[nH]c1-c1ccc(OC2CC(OCCC3CCOCC3)C2)cc1 (centres undefined),-1.2%,,-53%,4.29%,23.5%
OC[C@H]1O[C@@H](Oc2cc(O)c3c(c2)O[C@@H](c2ccc(O)cc2)[C@H](O)C3)[C@H](O)[C@@H](O)[C@@H]1O,5.87%,7.64%,11.3%,-6.08%,6.27%
COc1ccc(Cl)cc1N1C(=O)CSc2c(c3ccccc3n2C)C1C(=O)NCc1ccc(F)cc1 (centres undefined),-1.35%,0%,6.3%,4.38%,3.38%
COc1ccccc1CNC(=O)c1cc2n(n1)CC(C)(C(=O)NCc1ccccc1)N(C)C2=O (centres undefined),1.01%,2.49%,-1.58%,0.877%,-2.46%
COc1cccc(CN2C(=O)c3ccc(-c4ccco4)n3CC2(C)C(=O)NC2CCCCCCC2)c1 (centres undefined),-9.55%,-4.57%,2.63%,-22.4%,-6.01%
CC(C)CCNC(=O)c1cc2n(n1)CC(C)(C(=O)NCCC(C)C)N(C)C2=O (centres undefined),1.14%,0%,4%,-2.96%,1.48%
COc1ccc(CNC(=O)C2=NO[C@@H]3CN(c4ccccn4)C[C@H]23)cc1OC,-16.5%,-4.79%,-3.05%,-19.3%,8.04%
CC(C)c1ccc(-c2cc3n(n2)CC(C)(C(=O)NC2CCCCC2)N(CCN(C)C)C3=O)cc1 (centres undefined),1.22%,0.714%,1.4%,10.3%,3.78%
c1ccc(CN2CCc3c(sc4ncnc(N5CCOCC5)c34)C2)cc1,-14.8%,-5.18%,-13.9%,-55.7%,-25.9%
Cn1ccnc1-c1cn(Cc2ccccc2Cn2cccn2)nn1,-2.87%,-1.38%,-6.19%,-6.81%,-6.06%
CCOCCCNC(=O)C1c2c(n(C)c3ccccc23)SCC(=O)N1Cc1ccco1 (centres undefined),6.78%,0%,0.449%,6.07%,6.91%
CCC(C)NC(=O)c1ccc2c(=O)n(CC(C)C)c3nn(Cc4c(F)cccc4Cl)c(=O)n3c2c1 (centres undefined),0.653%,6.01%,2.64%,3.54%,0.679%
CN1CC(O)CN([S+](=O)([O-])c2cccs2)CC1=O (centres undefined),0.396%,1.71%,2.5%,1.56%,0.625%
CCC1C(=O)OCC1Cc1cncn1C (centres undefined),-7.94% and -11.9%,2.25% and -0.352%,-1.63% and -4.91%,-6.85% and -5.14%,6.68% and 4.25%

SMILES,"activity change, negative = inhibition [1]","activity change, negative = inhibition [2]","activity change, negative = inhibition [3]","activity change, negative = inhibition [4]","activity change, negative = inhibition [5]"
COc1ncccc1Nc1cnc2ccc(N3CCOCC3)nn12,-19.8%,-20.5%,-26.9%,-22.6%,-25.5%
CC(=O)Nc1ccc(-c2nnc3n(CCc4ccccc4)c(=O)c4ccccc4n23)cc1,-11%,-2.2%,-7.05%,-4.82%,-8.15%
OC[C@@H]1CN(Cc2ccco2)C[C@H]1c1ccccn1,-3.1%,0.04%,-0.463%,2.68%,2.05%
O=C(/C=C/c1ccc(O)c(O)c1)O[C@@H]1[C@@H](O)[C@H](OC2CCCCC2O)O[C@H](CO)[C@H]1O (some centres undefined),-0.34%,-4.19%,-3.19%,-14.1%,0.54%
O=C(NC1CCCC1)C1c2ccccc2CC(=O)N1Cc1ccccc1 (centres undefined),-2.27%,-1.48%,-0.828%,-6.17%,2.19%
CCCCN1C(=O)c2cc(C(=O)Nc3c(C)cccc3CC)nn2CC1(C)C(=O)NC1CCCC1 (centres undefined),2.98%,0.609%,-4.92%,1.96%,2.78%
COc1ccccc1CNC(=O)C1CN(C(C)C)C(=O)N1 (centres undefined),-0.793%,-0.609%,1.45%,-0.901%,1.23%
COc1ccccc1-c1cccc(C(=O)N2CCN(C(=O)c3ccc(F)cc3)CC2)c1,-6.71%,-3.98%,-0.718%,-14.4%,0.866%
Cc1csc(NC(=O)c2ccc(COc3cccc(Cl)c3)o2)n1,-4.46%,4.08%,11%,-15%,-2.14%
NC(=O)c1ncn([C@@H]2O[C@H](CO)[C@@H](O)[C@H]2O)c1O,7.43%,11.5%,8.24%,-3.99%,4.06%
CO[C@H]1C=CO[C@@]2(C)Oc3c(C)c(O)c4c(O)c(c5c(c4c3C2=O)NC2(CCN(CC(C)C)CC2)N=5)=NC(=O)C(C)=CC=C[C@H](C)[C@H](O)[C@@H](C)[C@@H](O)[C@@H](C)[C@H](OC(C)=O)[C@H]1C,-9.63%,9.71%,-8.08%,-10.5%,-3.69%
COc1ccc(C2(C(=O)N3CCCCCC3c3nc(-c4cccnc4)no3)CC2)cc1 (centres undefined),-0.915%,2.46%,3.2%,-2.27%,2.23%
CCOc1ccccc1CNC(=O)c1cc2n(n1)CC(C)(C(=O)NCCC(C)C)N(C)C2=O (centres undefined),3.46%,0.084%,4.43%,5.52%,2.97%
O=C(O)c1ccc(CN2CCC[C@H]2c2nc(-c3ccc(OC4CCCCC4)nc3)no2)cc1,-5.96%,-2.39%,-0.806%,-6.16%,-0.387%
CCCN1C(=O)c2c(C(=O)NCCc3ccc(Cl)cc3)ncn2CC1(C)C(=O)NCCC(C)C (centres undefined),1.36%,0.38%,1.48%,-1.06%,6.29%
COc1ccc(-c2cc3n(n2)CC(C)(C(=O)NC2CCCCC2)N(Cc2ccccn2)C3=O)cc1 (centres undefined),-0.644%,4.91%,-1.43%,2.78%,-0.489%
O=C1Nc2ccccc2CC12CCN2Cc1ccc(OC(F)(F)F)cc1 (centres undefined),-7.81%,-7.23%,-6.82%,-16.9%,-15.4%
Cc1ccc2c(n1)N(C)[C@H](CO)CCN(Cc1cccc(Cl)c1)C2,-4.11%,-0.795%,-5.74%,-6.71%,2.45%
